Test results reported in article PMC6919601, “Identification of Plasmodium dipeptidyl aminopeptidase allosteric inhibitors by high throughput screening” (PLoS ONE, 2019).
In all, about 110,000 compounds went through this assay and about 230 (0.21%) showed an effect of 50% or more. The list shows a part of the results.

target: DPAP1 (Plasmodium falciparum, UniProt Q8IIJ9); assay: primary screen, percent inhibition; read by cleavage of a fluorogenic dipeptide substrate; higher = more effect of the substance; parameters: species or system P. falciparum D10 trophozoite lysates; single well
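Further: 30 min substrate incubation versus DMSO and 10 µM JCP410 controls.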

Chain of DPAP1 (Q8IIJ9 whole entry, looked up): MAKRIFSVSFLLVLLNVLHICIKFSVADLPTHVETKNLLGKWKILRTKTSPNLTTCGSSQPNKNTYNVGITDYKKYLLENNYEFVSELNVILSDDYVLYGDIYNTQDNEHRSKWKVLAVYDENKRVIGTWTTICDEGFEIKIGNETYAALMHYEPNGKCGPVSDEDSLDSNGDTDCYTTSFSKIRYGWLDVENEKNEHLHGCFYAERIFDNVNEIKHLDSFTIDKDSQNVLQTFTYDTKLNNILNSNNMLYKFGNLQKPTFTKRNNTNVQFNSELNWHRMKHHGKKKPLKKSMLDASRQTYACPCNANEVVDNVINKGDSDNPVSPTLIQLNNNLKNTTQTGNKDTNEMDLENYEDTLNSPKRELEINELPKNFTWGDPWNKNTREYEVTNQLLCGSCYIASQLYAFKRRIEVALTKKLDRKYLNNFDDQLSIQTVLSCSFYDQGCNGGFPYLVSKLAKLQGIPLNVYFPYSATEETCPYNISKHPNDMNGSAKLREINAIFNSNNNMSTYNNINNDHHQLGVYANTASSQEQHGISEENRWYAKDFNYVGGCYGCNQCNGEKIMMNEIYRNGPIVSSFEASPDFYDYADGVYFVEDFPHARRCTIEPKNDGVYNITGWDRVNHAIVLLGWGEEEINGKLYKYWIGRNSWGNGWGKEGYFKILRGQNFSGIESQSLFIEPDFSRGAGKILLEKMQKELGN

Going from O=C(NCC(O)c1ccccc1)c1ccc(Br)cc1 (centres unmarked) to CCC(=O)NS(=O)(=O)c1ccc(NC(=O)c2ccccc2)cc1, the “% Inhibition @ 10 uM” value rises from -5.47% to 1.15%.

First: COc1cc(C2C3=C(O)CC(C)(C)CC3=NC3=C2C(=O)CC(C)(C)C3)c(Br)cc1O (centres unmarked)
Second: CC1(C)CC(=O)C2=C(C1)OC(N)=C(C#N)C2c1ccc(C(F)(F)F)cc1 (centres unmarked)
The “% Inhibition @ 10 uM” value of the first is higher: 0.851% for the first, -0.99% for the second.

Compared with CCOc1ccc2nc(NC3=NCN(CCN4CCOCC4)CN3)nc(C)c2c1, CCOc1ccc(-c2cn3c(n2)sc2cc(C(=O)N4CCN(C)CC4)ccc23)cc1 is higher in “% Inhibition @ 10 uM” value: -1.69% for the first, 13.8% for the second.

Compared with CCCSc1nnc(NC(=O)c2sc3nc(-c4cccs4)ccc3c2N)s1, Cc1cc(NC(=O)c2sc3nc(-c4ccncc4)ccc3c2N)ccc1Br is lower in “% Inhibition @ 10 uM” value: 1.31% for the first, -2.8% for the second.

Compared with Cc1c2cnn(CC(=O)NC(C)CCc3ccccc3)c(=O)c2c(C)n1Cc1ccc(Cl)cc1 (centres unmarked), Cc1nn(CCC(=O)NCc2ccc(OC(C)C)cc2)c(=O)c2nn(-c3ccccc3)c(C)c12 is lower in “% Inhibition @ 10 uM” value: -0.659% for the first, -5.54% for the second.

First: CC(CCN(C)C1CCN(C)CC1)c1ccccc1 (centres unmarked)
Second: CN1CCC(N(C)C/C(Cl)=C/c2ccccc2)CC1
The “% Inhibition @ 10 uM” value of the first is lower: -2.95% for the first, 1.38% for the second.

Compared with CC(CNc1nnc2c3ccccc3n(C)c2n1)c1ccccc1 (centres unmarked), O=C(CSc1nnnn1-c1ccccc1)c1ccccc1 is higher in “% Inhibition @ 10 uM” value: -4.69% for the first, -0.807% for the second.

Compared with Cc1cc(C)nc(SCC(=O)Nc2ccccc2Br)n1, CCNC(=O)CCSc1cccc2cccnc12 is lower in “% Inhibition @ 10 uM” value: 0.687% for the first, -2.19% for the second.

First: CN1CCN(CC(=O)Nc2c(C(=O)c3ccccc3)oc3ccccc23)CC1
Second: O=C(N/C(=C\c1ccccc1)C(=O)N1CCN(c2ccccn2)CC1)c1ccccc1
The “% Inhibition @ 10 uM” value of the first is lower: -11.2% for the first, -4.65% for the second.

Going from CC1CC(C)(C)NC(=S)N1CCC(=O)N1CCCCCC1 (centres unmarked) to Cc1nc2cccnc2n1-c1ccc(C(=O)N2CCCCCC2)cc1, the “% Inhibition @ 10 uM” value rises from -2.4% to -1.48%.

Compared with O=C(CN(CCc1ccccc1)S(=O)(=O)c1cc(Cl)ccc1Cl)N1CCCCC1, CS(=O)(=O)N(CC(=O)NCc1ccc(Cl)cc1)c1cccc(C(F)(F)F)c1 is lower in “% Inhibition @ 10 uM” value: -5.34% for the first, -9.25% for the second.

Compared with CC(NC(=O)c1ccc2c(c1)OCO2)C12CC3CC(CC(C3)C1)C2 (centres unmarked), O=C(Nc1sc2c(c1CNC1CCCCC1)CCCC2)c1ccccc1 is lower in “% Inhibition @ 10 uM” value: -1.51% for the first, -5.28% for the second.

Going from CCc1ccccc1NC(=O)[C@@H]1C[C@@H]1c1ccccc1 to Fc1ccccc1CSc1ncn(-c2ccccc2)n1, the “% Inhibition @ 10 uM” value rises from 1.48% to 5.39%.

Compared with CN(C)/C=C1/C(=O)N(c2nc3ccccc3s2)N=C1C(F)(F)F, O=C1/C(=C\c2cccs2)Sc2ccc3ccccc3c21 is lower in “% Inhibition @ 10 uM” value: 1.26% for the first, -0.053% for the second.

First: CSc1ccc(C2C3=C(O)CCCC3=Nc3nc4ccccc4n32)cc1 (centres unmarked)
Second: Cc1ccc(CNC(=O)C(C)n2c3ccccc3c3cnn(C)c(=O)c32)cc1 (centres unmarked)
The “% Inhibition @ 10 uM” value of the first is higher: -1.62% for the first, -5.63% for the second.

Compared with CC(=O)c1nn(-c2ccc(Cl)cc2)cc1C(=O)c1ccccc1, COCCCNC(=O)c1cc(-c2cccs2)nc2ccccc12 is lower in “% Inhibition @ 10 uM” value: 0.431% for the first, -2.49% for the second.

Going from OCCN1CCN(CCCN2Cc3ccccc3CCc3ccccc32)CC1 to CN(Cc1ccco1)C(=O)c1cc(-c2ccccc2)[nH]n1, the “% Inhibition @ 10 uM” value falls from -1.11% to -2.21%.

First: N#CC1=C(N)Oc2[nH]nc(C(F)(F)F)c2C1c1ccc(F)cc1 (centres unmarked)
Second: CCOc1cc(-c2cc(-c3ccc(F)cc3)nc(N)c2C#N)ccc1O
The “% Inhibition @ 10 uM” value of the first is higher: 3.99% for the first, -9.4% for the second.

Going from COc1ccc(CCNC(=O)CCN2C(=O)C3CC=CCC3C2=O)cc1OC (centres unmarked) to COCCCNC(=O)Cn1c(=O)c2cccn2c2cccnc21, the “% Inhibition @ 10 uM” value rises from -0.631% to 3.38%.

Going from COc1ccc(S(=O)(=O)N2CCCC2)cc1 to Cc1cccc(OCC(O)CN2CCCC2)c1 (centres unmarked), the “% Inhibition @ 10 uM” value falls from 2.94% to 2.38%.

Going from COc1ccc(Br)cc1/C=C1\N=C(C2CCCCC2)OC1=O to COc1ccc2nc(N(CCN(C)C)C(=O)C3CCCCC3)sc2c1, the “% Inhibition @ 10 uM” value falls from 5.01% to -8.25%.

First: CCOC(=O)c1cnc(SCC(=O)O)nc1N
Second: COCC(=O)N(C)C1(c2nnnn2-c2ccccc2)CCCCC1
The “% Inhibition @ 10 uM” value of the first is lower: -1.91% for the first, 1.03% for the second.

Compared with CC1CCc2c(C(=O)O)csc2C1 (centres unmarked), CCC(C)Nc1nc(NC(C)(C)C)nc(N2CCOCC2)n1 (centres unmarked) is higher in “% Inhibition @ 10 uM” value: -3.53% for the first, 5.92% for the second.

First: Cc1nn(-c2ccccc2)c2c1C1(C(=O)N(Cc3ccccc3)c3ccccc31)C(C#N)=C(N)O2 (centres unmarked)
Second: C=CCOc1c(Br)cc(/C=C2/NC(=O)N(Cc3ccccc3)C2=O)cc1OC
The “% Inhibition @ 10 uM” value of the first is lower: -7.3% for the first, 4.81% for the second.

Compared with O=C(NCc1ccco1)c1ccc(NS(=O)(=O)c2cccc(C(F)(F)F)c2)cc1, CCOc1cc(CO)ccc1OCc1ccc(Cl)c(Cl)c1 is higher in “% Inhibition @ 10 uM” value: 0.214% for the first, 2.78% for the second.
